Assays:
[1] = Toxicity assay in single administration; assay type: in vivo, B-hCD47 mice
Description: Since CD47 is expressed on red cells and plays a role in clearing aged red cells, the toxic effects of the anti-CD47 antibodies in B-hCD47 mice were compared.

[2] = Thermostability assay based on Nano DSF (Prometheus NT.48); assay type: physicochemical
Procedure: The high-throughput protein stability analyzer Prometheus NT.48 is an instrument for acquiring various types of data such as protein molecular structure stability, aggregation stability, and colloid dispersion stability. The melting temperatures (Tm) and the aggregation temperatures (Tagg) of the anti-CD47 chimeric antibodies and the anti-CD47 humanized antibodies were determined using this instrument.

[3] = test system: Raji cells; assay: Hematologic tumor mouse model of lymphoma Raji cells, survival; assay type: in vivo, NOD/SCID mice; conditions: 10 mg/kg intraperitoneal, 21 consecutive days
Procedure: A hematologic tumor mouse model was established using hematologic tumor Raji cells. The anti-CD47 antibodies were applied to the model for the evaluation of the pharmacodynamic activity.
A suspension of Raji cells in a PBS buffer was prepared at a concentration of 5×10^6 cells/mL, and was injected into female NOD/SCID mice via the tail vein at 0.1 mL/mouse. […] The administration was performed by intraperitoneal injection in doses of 10 mg/kg for 21 consecutive days. The survival time of the animals was observed.

[4] = test system: human B-cell lymphoma Daudi; assay: Subcutaneous mouse xenograft tumor of Daudi; assay type: in vivo, NOD-SCID mice; conditions: IV D0, 3, hz14A9-2.3 1.5 mg/kg, Rituximab 3 mg/kg
Procedure: The experimental animals were NOD-SCID mice (5-6 weeks old, male) purchased from Shanghai Lingchang Biotechnology Co., Ltd., with the production license number of SCXK (Hu) 2018-0003 and the animal certification number of 20180003014870. The housing environment was in a SPF grade. Human B-cell lymphoma Daudi cells were purchased from Cell Bank of the Chinese Academy of Sciences. Daudi cells were cultured in an incubator at 37° C. with 5% CO2 in air. Subculturing was performed twice a week, and when the cells were in a logarithmic growth phase, the cells were collected, counted, and inoculated. 1×10^7 Daudi cells were inoculated to each mouse subcutaneously, and when tumors reached the volume of about 100 mm^3, the mice were divided into groups and injected with drugs intravenously (IV) once every 3 days (Q3D) for a total of 2 times at the injection volume of 0.1 mL/10 g of body weight.
(§1) The experimental index was to investigate the effects of the drugs on the tumor growth, and the specific index was T/C % or the tumor growth inhibition rate (TGI %, tumor growth inhibition).
(§2) Tumor diameters were measured twice a week with a vernier caliper and tumor volume (V) was calculated according to the following formula: […]
(§3) where a and b represent length and width, respectively.
(§4) T/C (%)=(T−T0)/(C−C0)×100,
(§5) where T and C are the tumor volumes of animals at the end of the experiment in the test group and the negative control group, respectively; T0 and C0 are the tumor volumes of animals at the beginning of the experiment in the test group and the negative control group, respectively.
(§6) If the volume of tumor shrinks compared with its initial volume, i.e., T<T0 […], it is defined as partial regression (PR) of tumor; if the tumor completely disappears, it is defined as complete regression (CR) of tumor.
At the end of the experiment (D24), the animals were sacrificed by CO2 anesthesia and dissected to give the tumors. The tumors were photographed.

[5] = test system: human acute myeloblastic leukemia MOLM-16; assay: Subcutaneous mouse xenograft tumor of MOLM-16; assay type: in vivo
Procedure: The experimental animals were NOD-SCID mice (5-6 weeks old, female) purchased from Beijing Huafukang Biotechnology Co., Ltd., with the production license number of SCXK (Jing) 2019-0008 and the animal certification number of 110322211100910838. The housing environment was in a SPF grade. Human acute myelocytic leukemia MOLM-16 cells were purchased from DSMZ. MOLM-16 cells were cultured in an incubator at 37° C. with 5% CO2 in air. Subculturing was performed twice a week, and when the cells were in a logarithmic growth phase, the cells were collected, counted, and inoculated. 1×10^7 MOLM-16 cells were inoculated to each mouse subcutaneously, and when tumors reached the volume of 100-150 mm^3, the mice were divided into groups and injected with drugs intravenously (IV) at the administration volume of 0.1 mL/10 g of body weight.
as §1, §2, §3, §4, §5, §6
At the end of the experiment, the animals were sacrificed by CO2 anesthesia and dissected to give the tumors. The tumors were photographed.

[6] = test system: HL60 cells; assay: Promotion of macrophage phagocytosis of tumor cells (flow cytometry); assay type: cell-based, human; conditions: for rate of phagocytosis: CFSE-labeled HL60 cells, human macrophages
How it was run: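 Human blood monocytes differentiated into macrophages with 100 ng/mL M-CSF for 7 days. CFSE-labelled HL60 cells preincubated 1-2 h at 37 °C with anti-CD47 antibodies at 10 or 1 μg/mL, then co-cultured with macrophages 2-4 h. Macrophages stained for CD14/CD11b; phagocytosis rate (%) measured by flow cytometry.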

[7] = 2 days after administration, single 10 mpk via tail vein
[8] = 4 days after administration, single 10 mpk via tail vein
[9] = 7 days after administration, single 10 mpk via tail vein
[10] = 10 days after administration, single 10 mpk via tail vein
[11] = 14 days after administration, single 10 mpk via tail vein
[12] = day 0, single 10 mpk via tail vein
[13] = hz14A9-2.3 0.5/1.5 mg/kg IV D0, 3, 6, 10

B1: hz14A9-2.3: humanized anti-CD47 antibody, heavy chain SEQ ID NO: 181, light chain SEQ ID NO: 183 (antibody)
heavy: QVQLVQSGAEVKKPGASVKVSCKVSGFNIEDDYIEWVRQAPGQGLEWMGRIDPANDKTKYAQKFQGRVTMTGDTSTNTVYMELSSLRSEDTAVYYCARPGLRRYYSMDYWGQGTLVTVSSASTKGPSVFPLAPCSRSTSESTAALGCLVKDYFPEPVTVSWNSGALTSGVHTFPAVLQSSGLYSLSSVVTVPSSSLGTKTYTCNVDHKPSNTKVDKRV[omitted - human IgG4 Fc with S228P (EU numbers)]
light: DIQMTQSPSSLSASVGDRVTITCKASENVVSYVSWYQQKPGKAPKLLIYGASNRYTGVPSRFIGSGSSTDFTLTISSLQPEDFATYYCGQSYSYPLTFGQGTKLEIKRTVAAPSVFIFPPSDEQLKSGTASVVCLLNNFYPREAKVQWKVDNALQSGNSQESVTEQDSKDSTYSLSSTLTLSKADYEKHKVYACEVTHQGLSSPVTKSFNRGEC
modifications: heavy chain; light chain
Rate of change in HGB level (vs before administration) [1, 7]: −13.3% | Rate of change in RBC (vs before administration) [1, 7]: −13.6% | Rate of change in body weight (vs before administration) [1, 7]: 2.3% | Rate of change in HGB level (vs before administration) [1, 8]: −18.5% | Rate of change in RBC (vs before administration) [1, 8]: −16.7% | Rate of change in body weight (vs before administration) [1, 8]: 6.3% | Rate of change in HGB level (vs before administration) [1, 9]: −9.9% | Rate of change in RBC (vs before administration) [1, 9]: −9.8% | Rate of change in body weight (vs before administration) [1, 9]: 2.0% | Rate of change in HGB level (vs before administration) [1, 10]: −10.0% | Rate of change in RBC (vs before administration) [1, 10]: −8.5% | Rate of change in body weight (vs before administration) [1, 10]: 5.9% | Rate of change in HGB level (vs before administration) [1, 11]: −3.9% | Rate of change in RBC (vs before administration) [1, 11]: −2.2% | Rate of change in body weight (vs before administration) [1, 11]: 8.6% | Rate of change in HGB level (vs before administration) [1, 12]: 0.0% | Rate of change in RBC (vs before administration) [1, 12]: 0.0% | Rate of change in body weight (vs before administration) [1, 12]: 0.0% | course of body weight after administration (in words) ([1]; mouse, in vivo, 10 mg/kg): continuous increase in body weight | time after administration at which RBC and HGB levels were substantially normalized ([1]; mouse, in vivo, 10 mg/kg): 7 days | toxicity (in words) ([1]; single 10 mg/kg via tail vein): no significant toxicity | Tagg (aggregation temperature) [2]: 73.42 °C | Tm (melting temperature) [2]: 68.10 °C | anti-tumor activity (in words) [3]: showed anti-tumor activity | day on which all the animals in the group died [3]: 34 days | median survival time [3]: 28.5 days | T/C(%) D24 [4]: 30% | Tumor growth inhibition (%) D24 [4]: 70% | Partial regression (number of tumors) ([4]; hIgG4 4.5 mg/kg, 6 mice per group (hIgG4 10)): 0 | T/C(%) D12 [5, 13]: 89% | Tumor growth inhibition (%) D12 [5, 13]: 11% | toxicity when combined with azacitadine, by body weight of the mice (in words) ([5]; hz14A9-2.3 added to azacitadine): did not significantly increase toxicity | rate of phagocytosis ([6]; 1 μg/mL antibody): 71.48% | rate of phagocytosis ([6]; 10 μg/mL antibody): 74.93% | promotion of phagocytosis (in words) ([6]; 10 and 1 μg/mL): better performance
